Test results reported in publication PMC4336329 (PLoS ONE, 2015).
Screen size: about 310,000 compounds; about 2,200 (0.71%) showed an effect of 50% or more. The effect is printed as a negative number. The list shows a part of the results.

molecular target: human ether-à-go-go-related gene (hERG) potassium channel (human, UniProt Q12809); assay: primary screen, population patch clamp on CHO cells stably expressing hERG
Sequence (Q12809 whole entry, looked up): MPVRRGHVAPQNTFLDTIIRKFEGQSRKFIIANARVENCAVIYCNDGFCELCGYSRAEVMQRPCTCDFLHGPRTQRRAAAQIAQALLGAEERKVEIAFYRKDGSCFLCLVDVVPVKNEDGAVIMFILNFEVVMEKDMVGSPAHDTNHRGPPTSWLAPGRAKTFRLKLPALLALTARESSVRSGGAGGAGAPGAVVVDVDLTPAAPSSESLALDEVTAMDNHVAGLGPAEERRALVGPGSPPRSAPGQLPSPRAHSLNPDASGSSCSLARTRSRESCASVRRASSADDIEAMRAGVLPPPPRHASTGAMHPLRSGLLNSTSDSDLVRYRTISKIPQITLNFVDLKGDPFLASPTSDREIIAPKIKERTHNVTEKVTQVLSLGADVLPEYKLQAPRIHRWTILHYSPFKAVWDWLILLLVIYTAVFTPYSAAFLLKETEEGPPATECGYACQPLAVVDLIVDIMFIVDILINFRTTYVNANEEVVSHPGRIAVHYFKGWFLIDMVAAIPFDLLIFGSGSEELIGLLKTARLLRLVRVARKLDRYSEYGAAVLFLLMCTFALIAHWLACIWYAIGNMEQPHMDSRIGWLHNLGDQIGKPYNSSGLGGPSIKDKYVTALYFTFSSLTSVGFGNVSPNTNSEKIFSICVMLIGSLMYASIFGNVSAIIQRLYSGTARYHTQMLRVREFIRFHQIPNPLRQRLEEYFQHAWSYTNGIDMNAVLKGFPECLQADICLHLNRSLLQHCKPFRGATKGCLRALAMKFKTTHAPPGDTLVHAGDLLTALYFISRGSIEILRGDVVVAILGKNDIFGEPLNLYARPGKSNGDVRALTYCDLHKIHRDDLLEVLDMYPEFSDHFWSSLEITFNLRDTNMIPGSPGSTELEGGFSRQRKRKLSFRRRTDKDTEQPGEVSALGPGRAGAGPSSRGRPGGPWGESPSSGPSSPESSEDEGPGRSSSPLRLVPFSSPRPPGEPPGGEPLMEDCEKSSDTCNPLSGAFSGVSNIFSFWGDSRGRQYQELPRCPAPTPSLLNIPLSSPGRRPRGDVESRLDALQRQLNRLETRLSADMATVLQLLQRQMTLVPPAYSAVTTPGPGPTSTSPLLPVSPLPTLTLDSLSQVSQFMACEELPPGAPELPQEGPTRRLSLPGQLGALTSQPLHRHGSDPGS

First: CCOC(=O)N1CCN(CCC(=O)Nc2ccc(C)cc2)CC1
Second: CCOc1ccc(NC(=O)CCC(=O)c2ccc(Br)cc2)cc1
The “hERG current change (%, negative = inhibition) at 1uM” value of the first is lower: 5.62% for the first, 11.4% for the second.

Compared with `CN(C)c1ccc(CN(C(=O)c2ccco2)C2CCS(=O)(=O)C2)cc1` (stereo not drawn), `COc1cccc(CNC(=O)CCNC(=O)c2ccco2)c1` is higher in “hERG current change (%, negative = inhibition) at 1uM” value: 1.89% for the first, 12.5% for the second.

Compared with `Cn1nc(C(=O)N2CCCc3ccccc32)c2ccccc2c1=O`, `COc1ccccc1N1CCN(CC(=O)c2c(C)[nH]c3ccccc23)CC1` is lower in “hERG current change (%, negative = inhibition) at 1uM” value: 11.3% for the first, -2.2% for the second.

First: COc1ccc(NC(=O)C2CCCN(c3c4c(nc5ncnn35)CCC4)C2)cc1 (stereo not drawn)
Second: COc1ccc(OC)c(S(=O)(=O)N2CCCC(C(=O)NCCc3ccccc3)C2)c1 (stereo not drawn)
The “hERG current change (%, negative = inhibition) at 1uM” value of the first is lower: -7.7% for the first, 3.01% for the second.

First: COc1ccc(-n2cccc2/C=C/[N+](=O)[O-])cc1
Second: COC(=O)CSc1nnc(-c2ccoc2C)n1-c1ccc(OC)cc1
The “hERG current change (%, negative = inhibition) at 1uM” value of the first is lower: 0.13% for the first, 8.81% for the second.

Going from `COc1cccc2c(O)c(-c3ccccc3)c(=O)[nH]c12` to `CCN(CC)C(=O)c1c(-c2ccccc2)oc2ccc(OC)cc12`, the “hERG current change (%, negative = inhibition) at 1uM” value falls from 15.7% to 10.8%.

Compared with `Cc1c(C#N)c2ncn(CCCN(C)C)c(=O)c2n1-c1ccccc1`, `COc1ccc(C)cc1NC(=O)CCCN1C(=O)C(c2ccccc2)Oc2cccnc21` (stereo not drawn) is higher in “hERG current change (%, negative = inhibition) at 1uM” value: 8.56% for the first, 11% for the second.

Compared with `CCc1nnc(NS(=O)(=O)c2ccccc2)s1`, `Br.CCN(CC)S(=O)(=O)c1cccc(C(=O)NN2Cc3ccccc3C2=N)c1` is lower in “hERG current change (%, negative = inhibition) at 1uM” value: 8.61% for the first, -3.84% for the second.

Compared with `Cc1ccc(S(=O)(=O)N(C)C)cc1NC(=O)Nc1c(-c2ccccc2)noc1C`, `Cc1ccc(S(=O)(=O)N(C)C)cc1NC(=O)[C@H](Cc1ccccc1)N1C(=O)c2ccccc2C1=O` is lower in “hERG current change (%, negative = inhibition) at 1uM” value: 11.9% for the first, 7.69% for the second.

Compared with `CCn1c(C2CCN(Cc3ccccc3)CC2)n[nH]c1=S`, `CCOC(=O)C1(S(=O)(=O)c2ccccc2)CCN(Cc2ccccc2)CC1` is lower in “hERG current change (%, negative = inhibition) at 1uM” value: 3.03% for the first, -0.127% for the second.

First: Cc1cc(NC2CCCC2)n2ncc(-c3ccccc3)c2n1
Second: Cc1cccn2c(=O)c3cc(C(=O)NCc4ccco4)c(=N)n(C4CCCCC4)c3nc12
The “hERG current change (%, negative = inhibition) at 1uM” value of the first is higher: 3.69% for the first, -84.8% for the second.

First: COCCN(C(=S)Nc1ccccc1C)C(C)c1ccco1 (stereo not drawn)
Second: COc1ccccc1NC(=O)c1cccs1
The “hERG current change (%, negative = inhibition) at 1uM” value of the first is higher: 15.6% for the first, -11.4% for the second.

First: Cc1ccc(C(=O)OCc2nnc(-c3ccc(Br)cc3)o2)cc1
Second: CCOC(=O)c1ccc(NC(=O)Cn2nnc(-c3ccccc3)n2)cc1
The “hERG current change (%, negative = inhibition) at 1uM” value of the first is higher: 4.7% for the first, 1.77% for the second.

Compared with `O=C(NCc1ccc(F)cc1)c1ccccc1OCc1ccccc1`, `COc1ccc(C2NCCc3c2[nH]c2ccccc32)cc1COc1ccc(F)cc1.Cl` (stereo not drawn) is higher in “hERG current change (%, negative = inhibition) at 1uM” value: -3.3% for the first, -2.91% for the second.

First: O=C(Nc1nnc(S(=O)(=O)N2CCCCC2)s1)c1ccc(Cl)cc1
Second: O=C(CN1CCCCC1)Nc1cc(Cl)ccc1Oc1ccccc1
The “hERG current change (%, negative = inhibition) at 1uM” value of the first is higher: 12% for the first, 9.88% for the second.

First: COc1ccc(N=Cc2c(OC)ccc3ccccc23)cc1
Second: COc1ccccc1CCNC(=O)CSc1nnc2ccc(-c3ccncc3)nn12
The “hERG current change (%, negative = inhibition) at 1uM” value of the first is higher: 9.43% for the first, 3.14% for the second.

Compared with `COc1cccc(CCC(=O)Nc2cccc(S(=O)(=O)N3CCCC3)c2)c1OC`, `COc1cccc(NC(=O)CCc2c(C)nn(-c3ccc(N4CCOCC4)nn3)c2C)c1` is higher in “hERG current change (%, negative = inhibition) at 1uM” value: -3.91% for the first, 3.36% for the second.

Compared with `Cc1cc(NC(=O)CSc2nnc(-c3ccccc3)o2)no1`, `CNC(=O)CSc1nnc(-c2ccco2)n1-c1cccc(C)c1` is lower in “hERG current change (%, negative = inhibition) at 1uM” value: 7.31% for the first, 7.18% for the second.

First: CCC(=O)N1c2ccc(S(=O)(=O)CCC(=O)NCc3cccs3)cc2CC1C (stereo not drawn)
Second: CCC(C)NC(=O)CNC(=O)Cn1c(C)cc2ccccc2c1=O (stereo not drawn)
The “hERG current change (%, negative = inhibition) at 1uM” value of the first is lower: 14.7% for the first, 16.5% for the second.

Compared with `CC(=O)Nc1ccc(N2C(=O)C3C4CC(=O)C(c5ccccc54)C3C2=O)cc1` (stereo not drawn), `Cc1ccc(NC(=O)COC(=O)CN2C(=O)c3ccccc3C2=O)cc1` is lower in “hERG current change (%, negative = inhibition) at 1uM” value: 11% for the first, 4.96% for the second.

First: CCOC(=O)C1CCCCN1Cc1cccc(C(F)(F)F)c1 (stereo not drawn)
Second: COCCn1nnnc1C(c1cccc(C(F)(F)F)c1)N1CCN(Cc2ccccc2)CC1.Cl (stereo not drawn)
The “hERG current change (%, negative = inhibition) at 1uM” value of the first is higher: 9.49% for the first, 5.53% for the second.

First: O=Cc1cn(CC(=O)Nc2ccc3c(c2)OCO3)c2ccccc12
Second: O=S(=O)(NCc1ccc2c(c1)OCO2)c1cccc2cccnc12
The “hERG current change (%, negative = inhibition) at 1uM” value of the first is higher: 16.8% for the first, 0.0688% for the second.

Going from `O=C(Cc1c(Cl)cccc1Cl)N1CCN(S(=O)(=O)c2cccs2)CC1` to `O=C(C(=O)N1CCOCC1)c1cn(Cc2ccccc2Cl)c2ccccc12`, the “hERG current change (%, negative = inhibition) at 1uM” value falls from 24% to 7.01%.

First: COc1ccc(OCC(O)CN2CCN(c3ccc(Cl)cc3)CC2)cc1 (stereo not drawn)
Second: CCOc1ccc(-c2ccc(SCC(=O)N3CCN(c4ccccc4)CC3)nn2)cc1
The “hERG current change (%, negative = inhibition) at 1uM” value of the first is lower: -3.03% for the first, 13.6% for the second.

Compared with `Cc1c(N2C(=O)/C(=C3\C(=O)N(CC(=O)O)c4ccccc43)SC2=S)c(=O)n(-c2ccccc2)n1C`, `c1ccc(CN=C2NN=C(c3cc4ccccc4o3)CS2)cc1` is higher in “hERG current change (%, negative = inhibition) at 1uM” value: 9.82% for the first, 14.2% for the second.

First: CC(C)(C)N(NC(=O)Nc1ccc(Cl)c(Cl)c1)C(=O)c1ccccc1
Second: Cc1cccc(N(C(=O)c2sc(C)nc2C)C(C(=O)NCC2CCCO2)c2ccccc2)c1 (stereo not drawn)
The “hERG current change (%, negative = inhibition) at 1uM” value of the first is higher: 8.71% for the first, 8.18% for the second.

First: COC(=O)Nc1nnc(-c2ccc(OC)cc2)s1
Second: CCOC(=O)Nc1c(C(=O)OC)[nH]c2cc(OC)ccc12
The “hERG current change (%, negative = inhibition) at 1uM” value of the first is higher: 9.88% for the first, -3.1% for the second.

First: COc1ccccc1CCN1CCCC(CN(C)C(=O)c2ccc3nc[nH]c3c2)C1 (stereo not drawn)
Second: COCC1CCCN(C(=O)c2ccc3oc(C(C)C)nc3c2)C1 (stereo not drawn)
The “hERG current change (%, negative = inhibition) at 1uM” value of the first is higher: 12.4% for the first, 9.33% for the second.

Compared with `CCOc1ccc2nc(N=Nc3c(O)[nH]c(=S)[nH]c3=O)sc2c1`, `CCOc1ccc(-n2c(SCC(=O)Nc3ccccc3CC)nc3n[nH]c(C)c3c2=N)cc1` is lower in “hERG current change (%, negative = inhibition) at 1uM” value: 12.7% for the first, 8.56% for the second.

Compared with `O=C(Nc1ccc2nc3n(c(=O)c2c1)CCCCC3)c1c(F)ccc([N+](=O)[O-])c1F`, `Cc1ccc(NC(=O)c2ccc3c(=O)n4c(nc3c2)CCC4)cc1F` is lower in “hERG current change (%, negative = inhibition) at 1uM” value: 0.423% for the first, -3.69% for the second.

Compared with `Cc1ccc(C(=O)c2oc3ccccc3c2NC(=O)c2cc(-c3ccccc3O)n[nH]2)cc1`, `Cc1ccc(NC(=O)CSC2=C(C#N)C(c3ccco3)C3=C(CCCC3=O)N2)cc1` (stereo not drawn) is lower in “hERG current change (%, negative = inhibition) at 1uM” value: 13.9% for the first, 5.68% for the second.

First: C=CCn1c(O)c(/C=C2\C=NN=C2c2ccccc2)sc1=S
Second: Oc1ccc(/C=N/n2c(-c3ccccc3)n[nH]c2=S)cc1Br
The “hERG current change (%, negative = inhibition) at 1uM” value of the first is higher: 8.78% for the first, 1.11% for the second.

Going from `Cc1noc(C)c1COc1cccc(C(=O)NCc2cccc(Cl)c2)c1` to `CCOC(=O)c1cc(OC(=O)c2cccnc2)n(-c2ccccc2)n1`, the “hERG current change (%, negative = inhibition) at 1uM” value rises from 3.67% to 6.35%.

First: CC(C)=CCCC1=CCC(/C=N/NC(N)=O)C(C)C1 (stereo not drawn)
Second: CSCCC(N=Cc1c(O)n(-c2ccc(F)cc2)c(=O)[nH]c1=O)C(=O)OC(C)(C)C (stereo not drawn)
The “hERG current change (%, negative = inhibition) at 1uM” value of the first is higher: 7.56% for the first, -4.02% for the second.

First: Cc1ccoc1C(=O)NCCNC(=O)c1occc1C
Second: CC(C)COc1ccccc1C(=O)NC(CO)C(=O)O (stereo not drawn)
The “hERG current change (%, negative = inhibition) at 1uM” value of the first is lower: -2.62% for the first, 15.1% for the second.

Compared with `CCN(CC)S(=O)(=O)c1ccc(N2CCOCC2)c(NC(=O)c2cnccn2)c1`, `COc1cc(C(=O)NNC(=O)Cc2ccc(S(=O)(=O)N3CCOCC3)s2)cc(OC)c1OC` is lower in “hERG current change (%, negative = inhibition) at 1uM” value: 14.5% for the first, 9.26% for the second.

First: Cc1csc(=NC(=O)c2ccccc2)n1CCO
Second: O=C(CCCn1cnc([N+](=O)[O-])n1)Nc1cccc2ccccc12
The “hERG current change (%, negative = inhibition) at 1uM” value of the first is lower: 14.6% for the first, 17.7% for the second.

First: CCOC(=O)c1c(C2CC2)csc1NC(=O)COC(=O)c1cnc(Cl)c(Cl)c1
Second: CCN(CC)S(=O)(=O)c1cc(NC(=O)COC(=O)CCC(=O)c2ccc(F)cc2)ccc1C
The “hERG current change (%, negative = inhibition) at 1uM” value of the first is higher: 16.3% for the first, 11.4% for the second.

First: C=CCn1c(=O)c2ccccc2n2c(SCC(=O)NC)nnc12
Second: COCCn1c(SCC(=O)c2c(N)n(C)c(=O)n(C)c2=O)nc2ccccc21
The “hERG current change (%, negative = inhibition) at 1uM” value of the first is higher: 11.9% for the first, 8.41% for the second.

Compared with `CCOC(=O)N1CCN(C(=O)CCc2nc3sc4c(c3c(=O)[nH]2)CCCC4)CC1`, `CC(C)(C)OC(=O)N1CCC(c2c(C(=O)NCC3CCN(C4CCCC4)C3)cnn2-c2ccccc2)CC1` (stereo not drawn) is higher in “hERG current change (%, negative = inhibition) at 1uM” value: -4.13% for the first, 11.6% for the second.

Going from `Clc1ccc(C2[C@H]3CN(Cc4cccnc4)[C@H](c4ccccc4)C34CC2(c2ccccc2)C4)cn1` (stereo partly drawn) to `CCN1CCCC1CNC(=O)C1c2cc(OC)c(OC)cc2C(=O)N(C)C1c1cccnc1` (stereo not drawn), the “hERG current change (%, negative = inhibition) at 1uM” value falls from 14.4% to 5.93%.

First: CC1(C)CC(NC(=O)c2ccc(Cl)c(Cl)c2)CC(C)(C)N1
Second: CC12CCC(C(N)=O)(c3nc4ccccc4nc31)C2(C)C (stereo not drawn)
The “hERG current change (%, negative = inhibition) at 1uM” value of the first is higher: 11.9% for the first, 5.55% for the second.

Compared with `COc1cc(-c2cc(C(=O)N3CCN(c4ccccn4)CC3)c3ccccc3n2)cc(OC)c1OC`, `CCOC(=O)C1C(=O)CC(C)(O)C(C(=O)OCC)C1c1ccccc1OC` (stereo not drawn) is higher in “hERG current change (%, negative = inhibition) at 1uM” value: -5.78% for the first, 8.66% for the second.

`CC(=O)c1ccc(Nc2ccc([N+](=O)[O-])c3nonc23)cc1` was tested, and the “hERG current change (%, negative = inhibition) at 1uM” value was 13.5%.
